Hit rate of the full screen: of about 200,000 compounds, about 4,500 (2.2%) were called active. This list was built around the results that the source calls inconclusive (neither active nor inactive); the mix of calls is not that of the screen. The call rests on the fitted dose curve; in most records, active means well fitted inhibition curve with a large enough effect; inconclusive means small, poorly fitted or top-dose-only effect, or effect the other way; inactive means flat fitted curve, though single readings scatter. A potency beside an inconclusive call is a rough fit, not a confirmed value.
target: Cruzipain (Trypanosoma cruzi) (UniProt P25779); assay: qHTS Assay for Promiscuous and Specific Inhibitors of Cruzain (without detergent); details: purified cruzain, Z-FR-AMC fluorescence, no detergent; further: nearly all actives have a fitted effect of over 40% in size
Protocol: Cruzain is a cysteine protease from the tropical parasite Trypanosoma cruzi. Dual qHTS experiment was performed against the NCGC compound collection in order to 1) identify novel inhibitors of the enzyme and 2) profile the compound collection for promiscuous inhibitors operating via colloidal aggregation (by performing detergent-free and detergent-containing comparison screens). Cruzain was assayed by the use of fluorogenic coumarin-based substrate Z-FR-AMC: proteolytic cleavage releases AMC, whose fluorescence is measured at 360 nm excitation and 450 nm emission. Purified cruzain was supplied by the labs of Prof. James McKerrow and Brian Shoichet, UC San Francisco.
This assay had 0.00005% Triton X-100 concentration. See also releated assay "qHTS Assay for Promiscuous and Specific Inhibitors of Cruzain (with detergent)" with 0.01% Triton X-100.
See following references for additional details:
Assay Provider: Shoichet, Brian; University of California, San Fancisco
Screening Center PI: Austin, C.P.
Screening Center: NIH Chemical Genomics Center [NCGC]
Buffer: 100 mM Sodium Acetate, pH 5.5, 5 mM DTT, Triton X-100 concentration: 0.01%.
Buffer in columns 3 and 4 as negative control (no enzyme).
Substrate solution: 2 uM final concentration of Z-FR-AMC (catalog number I-1160, Bachem) dispensed throughout the plate.
Enzyme: 1.5 nM Cruzain final concentration in columns 1, 2, 5-48. Column 1 is neutral (100% activity). Column 2 contained titration of covalent inhibitor K11777, starting concentration 1 mM, then 1:2 dilution in duplicate).
Three uL of enzyme or buffer were dispensed to 1536-well Greiner black solid bottom plates. Compounds and controls (23 nL) were transferred via Kalypsys PinTool. The plates were incubated for 15 min at room temperature, and then 1 uL of substrate solution was added to start the reaction. The plates were immediately transferred to and read 4 times every 30 seconds for 2 min on ViewLux High-throughput CCD imager (Perkin-Elmer) using 360 nm excitation and 450 nm emission fluorescence protocol. The fluorescence intensity difference between the third and the first time points (time lapse of 60 seconds) was used to compute reaction progress.
Potency means the concentration at half of the fitted maximal effect; tags describe the fitted curve by direction and shape.

Sequence of UniProt P25779 (P25779 whole entry, looked up): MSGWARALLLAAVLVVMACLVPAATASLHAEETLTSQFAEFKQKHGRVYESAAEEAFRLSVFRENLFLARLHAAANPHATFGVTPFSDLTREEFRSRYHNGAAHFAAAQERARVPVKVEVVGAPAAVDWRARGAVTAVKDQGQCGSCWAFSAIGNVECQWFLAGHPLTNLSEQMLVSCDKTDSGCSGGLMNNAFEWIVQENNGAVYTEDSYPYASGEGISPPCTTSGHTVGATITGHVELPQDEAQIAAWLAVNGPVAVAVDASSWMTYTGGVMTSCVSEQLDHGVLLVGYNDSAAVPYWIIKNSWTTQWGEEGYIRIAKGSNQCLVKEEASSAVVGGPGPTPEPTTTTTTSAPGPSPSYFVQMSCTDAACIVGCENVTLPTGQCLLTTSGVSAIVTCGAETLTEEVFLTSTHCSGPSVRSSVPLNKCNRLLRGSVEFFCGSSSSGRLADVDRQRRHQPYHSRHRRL

Row | SMILES | Potency | max response, negative = inhibition
1 | COc1cc2c(=O)n(Cc3ccccc3)c(=O)n(CC(=O)NCCc3ccccc3)c2cc1OC | inconclusive: 31.6 µM [activator, single point] | 
2 | COc1cc2c(cc1NC(=O)C(C)N1CCN(S(=O)(=O)c3ccccc3[N+](=O)[O-])CC1)oc1ccccc12 (centres undefined) | active: 0.794 µM | 
3 | Cc1cc(Cl)ccc1NC(=O)c1cccc(NC(=O)N2CCSc3ncccc32)c1 |  | inactive: 8.27%
4 | Cc1c(Cl)c([N+](=O)[O-])nn1Cc1ccc(C(=O)N/N=C\c2cc(Cl)ccc2O)o1 | inconclusive: 25.1 µM [inhibitor, single point] | 
5 | Cc1cc(C(=O)COc2ccc(-c3nnco3)cc2)c(C)n1Cc1ccccc1 | active: 15.8 µM | 
6 | COc1ccccc1OCCSc1nc(-c2ccc(C(C)(C)C)cc2)nc2cc(=O)[nH]n12 |  | inactive: -9.04%
7 | COCCNC(=O)C(C#N)c1nc2ccccc2nc1N1CCCCCC1 (centres undefined) | inconclusive: 39.8 µM [activator, single point] | 
8 | COc1ccc(C2CC(c3ccc(Br)cc3)=NN2C(=O)CSC2=NCCS2)cc1 (centres undefined) | inconclusive: 39.8 µM [inhibitor, single point] | 
9 | Cc1ccc(NC(=O)COC(=O)c2cc(Cl)cc(Cl)c2)c(Br)c1 | inconclusive: 39.8 µM [inhibitor, single point] | 
10 | COc1ccccc1CNC(=O)c1cc2cc3ccc(Cl)cc3nc2o1 |  | inactive: 0.326%
11 | Clc1ccc(Nc2nc(C3CC3)cs2)cc1 | inconclusive: 39.8 µM [inhibitor, single point] | 
12 | Fc1ccc(C2CC(c3ccco3)=NN2c2ccccc2)cc1 (centres undefined) | inconclusive: 6.31 µM [inhibitor, single point] | 
13 | O=C(NCc1cccs1)c1csc2ccccc12 |  | inactive: 4.2%
14 | Nc1nc(CC(=O)O)cs1 |  | inactive: -9.49%
15 | Cc1cccc(C(=O)OCC(=O)Nc2ccc(N3CCCCC3)cc2)c1O | inconclusive: 39.8 µM [inhibitor, single point] | 
16 | C#CCSc1nc2[nH]ncc2c(=O)[nH]1 |  | inactive: 8.93%
17 | Cc1cc2oc(C(=O)Nc3ccc(S(=O)(=O)N(C)Cc4ccccc4)cc3)cc(=O)c2cc1C |  | inactive: -0.32%
18 | Cc1cccc(C)c1NC(=O)COc1ccc2c(C)c(Cc3ccccc3)c(=O)oc2c1C | active: 12.6 µM | 
19 | CS(=O)(=O)c1ccc(C(O)C(CO)NC(=O)C(Cl)Cl)cc1 (centres undefined) |  | inactive: -1.42%
20 | Cc1ccc(-n2cnc3scc(-c4cccs4)c3c2=O)cc1 | inconclusive: 25.1 µM [inhibitor, single point] | 
21 | CCCOC(=O)NC1C(NC(=O)OCCC)N(C)C(=O)N1C (centres undefined) | inconclusive: 31.6 µM [activator, single point] | 
22 | O=c1cc(CN2CCN(c3ccccc3)CC2)c2cc(O)c(-c3ccccc3)cc2o1 | active: 10 µM | 
23 | O=C(NCC1CCCO1)C12CN(Cc3ccccc3)CC1C(c1cccc([N+](=O)[O-])c1)=NO2 (centres undefined) |  | inactive: 6.31%

Row | SMILES | Potency | max response, negative = inhibition
24 | Cc1ccc(C)c(CN2C(=O)C3CCCN3c3ccc(C#N)cc32)c1 (centres undefined) | active: 15.8 µM | 
25 | CCOc1ccc(C2=CC(c3cccc(Br)c3)n3c(nc4ccccc43)N2)cc1Cl (centres undefined) | inconclusive: 31.6 µM [inhibitor, single point] | 
26 | C=CCC(O)(/C=C/c1ccccc1)c1ccccc1 (centres undefined) |  | inactive: -1.07%
27 | Cc1cccc(C(=O)NC(=S)N2CCN(C(=S)NC(=O)c3cccc(C)c3)CC2)c1 | inconclusive: 39.8 µM [activator, single point] | 
28 | O=c1c2sc3ccccc3c2n(Cc2cccc(Cl)c2)c(=O)n1Cc1ccco1 | inconclusive: 31.6 µM [inhibitor, single point] | 
29 | Cc1ccc(N2CCN(C(=O)C3CCN(S(=O)(=O)c4ccc5c(c4)oc(=O)n5C)CC3)CC2C)cc1 (centres undefined) |  | inactive: 6.92%
30 | CCCC(=O)NC(c1ccc(OC)c(OC)c1)c1c(O)ccc2ccccc12 (centres undefined) | inconclusive: 39.8 µM [activator, single point] | 
31 | COc1ccc(CNC(=O)c2cc3c(C)nc4ccccc4c3o2)c(OC)c1 | inconclusive: 31.6 µM [activator, single point] | 
32 | COc1ccc(S(=O)(=O)N2Cc3ccccc3CC2C(=O)Nc2ccc(C)cc2C)cc1OC (centres undefined) | inconclusive: 39.8 µM [activator, single point] | 
33 | CCOC(=O)c1c(C)[nH]c(C)c1S(=O)(=O)N1CCC(C(=O)NCc2cccc(OC)c2)CC1 |  | inactive: -6.59%
34 | Cc1ccc(NC(=O)Cn2nc(N3CCN(c4ccccc4)CC3)ccc2=O)cc1F | inconclusive: 39.8 µM [activator, single point] | 
35 | COc1ccc(-n2c(=O)c3sc4ccccc4c3n(Cc3ccccc3C)c2=O)cc1OC |  | inactive: -13.7%
36 | COc1ccc(C(=O)c2c(N)c(C(=O)Nc3cccc(OC)c3)c3ccccn23)cc1 |  | inactive: -12.8%
37 | O=C1c2cccc3cc(Br)cc(c23)C(=O)N1Nc1ccc(Br)cc1 | inconclusive: 31.6 µM [inhibitor, single point] | 
38 | COc1ccc(-n2nc([N+](=O)[O-])c(=NCCc3ccc(OC)c(OC)c3)n2O)cc1 |  | inactive: -0.965%
39 | O=C(CS(=O)(=O)c1ccccc1)Nc1nc(-c2ccccc2)cs1 | inconclusive: 39.8 µM [activator, single point] | 
40 | COc1ccccc1NC(=O)CC1C(=O)NCCN1C(=O)Nc1ccc(Cl)c(Cl)c1 (centres undefined) | inconclusive: 25.1 µM [activator, single point] | 
41 | CCc1ccccc1Nc1sc(C(=O)c2cccc(OC)c2)c(N)c1S(=O)(=O)c1ccccc1 | active: 7.94 µM | 
42 | COc1ccc(C2c3c(n(C)c4ccccc34)C(=O)N2CC(=O)Nc2cccc(Cl)c2C)cc1 (centres undefined) | inconclusive: 5.01 µM [activator, single point] | 
43 | Cc1cccc(N2CCN(C(=O)c3cnc(N4CCCC4)nc3C)CC2)c1C | inconclusive: 39.8 µM [activator, single point] | 
44 | Cc1ccc(N2CC(NC(=O)c3cccc(Cl)c3)CC2=O)cc1C (centres undefined) |  | inactive: -14.8%
45 | COc1ccc(N(C(=O)c2ccc(C(C)(C)C)cc2)S(=O)(=O)c2ccc(Cl)cc2)cc1 | active: 10 µM | 
46 | CCC1=C(c2ccc(C)cc2)S(=O)(=O)N=C1N1CCC(C(=O)NCc2ccc(N(C)C)cc2)CC1 |  | inactive: 9.71%

Row | SMILES | Potency | max response, negative = inhibition
47 | O=S(=O)(Nc1cc(Sc2cccc3cccnc23)c(O)c2ccccc12)c1ccc(F)cc1 | inconclusive: 39.8 µM [inhibitor, single point] | 
48 | CCOC(=O)c1c(C)oc2ncnc(Nc3cc(C)cc(C)c3)c12 |  | inactive: -8.37%
49 | Cc1ccc(NC(=O)CSc2nc3ccccc3c3nc(CCc4c(C)n[nH]c4C)nn23)cc1F | inconclusive: 6.31 µM [activator, single point] | 
50 | N=C1C(c2nc(-c3ccc(F)cc3)cs2)=C(O)CN1CCCN1CCOCC1 |  | inactive: -0.26%
51 | CC1(C)CC(=O)C2=C(C1)NC(Nc1nc3ccccc3o1)=NC21CCCCC1 | inconclusive: 39.8 µM [inhibitor, single point] | 
52 | CCOC(=O)CCc1c(C)nc2cc(-c3cc(OC)cc(OC)c3)[nH]n2c1=O |  | inactive: -1.73%
53 | O=c1c(/C=N/Nc2ccccc2)c(Sc2nnnn2-c2ccccc2)nc2ccccn12 | active: 15.8 µM | 
54 | COc1cc(NC(=O)c2nnn(CC(=O)Nc3cc(C)ccc3C)c2N)cc(OC)c1 |  | inactive: 3.21%
55 | CCOC(=O)c1c(NC(=O)CSc2nc3cccnc3n2C)sc(C(C)=O)c1C | inconclusive: 31.6 µM [activator, single point] | 
56 | Cc1nn(-c2ccccc2)c(N2CCCC2)c1/C=N/Nc1ccc(S(=O)(=O)Nc2ccccc2)cc1[N+](=O)[O-] | inconclusive: 3.98 µM [inhibitor, full curve, poor fit] | 
57 | Cc1cc(-c2ccc(C)c(S(=O)(=O)N3CCOc4ccc(Cl)cc43)c2)on1 | inconclusive: 7.94 µM [inhibitor, single point] | 
58 | Cn1c(=O)c2ncn(CC(=O)Nc3ccc4c5c(cccc35)CC4)c2n(C)c1=O | active: 12.6 µM | 
59 | Cc1cc(C)nc(SCc2nnc(SCC(=O)Nc3nc(-c4ccccc4)cs3)n2-c2ccccc2)n1 | inconclusive: 25.1 µM [inhibitor, single point] | 
60 | COc1ccc(CC(=O)NNc2ncnc3c2cnn3-c2ccccc2)cc1 | inconclusive: 39.8 µM [inhibitor, single point] | 
61 | CCc1ccc(-c2csc(NC(=O)C3=NN(c4ccccc4)C(=O)CC3)n2)cc1 | inconclusive: 31.6 µM [inhibitor, single point] | 
62 | CCOc1ccc(-n2nc3ccc(NC(=O)Cc4ccccc4)cc3n2)cc1 | inconclusive: 3.16 µM [inhibitor, single point] | 
63 | C[C@@](N)(/C=C\c1ccccc1)C(=O)O |  | inactive: 6.31%
64 | CCCCC/C=C\C[C@@H](O)/C=C/C=C\C/C=C\CCCC(=O)O |  | inactive: -3.78%
65 | Cc1nn(Cc2ccccc2Cl)c(C)c1C(=O)NC1CCCc2ccccc21 (centres undefined) | inconclusive: 31.6 µM [activator, single point] | 
66 | Nc1ccc2c(c1)C(=O)C(=O)c1ccccc1-2 | inconclusive: 39.8 µM [inhibitor, single point] | 
67 | CNc1nnc(-c2cc3cc(Cl)ccc3oc2=O)s1 |  | inactive: 2%
68 | CC1(C)CC(=O)C2=C(C1)Nc1[nH]n(-c3ccccc3)c(=O)c1C2c1ccc2c(c1)OCO2 (centres undefined) | inconclusive: 39.8 µM [activator, single point] | 
69 | COc1cccc(C2/C(=C(/O)c3cnn(-c4ccccc4)c3C)C(=O)C(=O)N2CCN(C)C)c1OC (centres undefined) | inconclusive: 39.8 µM [activator, single point] | 
